According to the supplement of paper PMC7826260:
This is one part of the list. Cleavage of a single-stranded DNA pool by Rep nickase domains was read by sequencing (3 µM enzyme, 1 h, 37 °C); shown is the middle of each 90-letter strand. Values are log2 of uncut reads against the no-enzyme pool; strong cutting gives strongly negative numbers. There is no active / inactive call. Counts are relative to all reads; values above 0 arise when much of the pool is cut.

The sequences below were run on T1, Rep nickase domain of wheat dwarf virus (assay: uncleaved DNA left, log2 of reads against the no-enzyme library (log2 ratio); higher = less cleavage (more negative = more Rep cleavage of the k-mer); sequences stand for … in CTCGTCCG…ACCGGAGA).
T1 sequence (residues 1-137, tag not shown): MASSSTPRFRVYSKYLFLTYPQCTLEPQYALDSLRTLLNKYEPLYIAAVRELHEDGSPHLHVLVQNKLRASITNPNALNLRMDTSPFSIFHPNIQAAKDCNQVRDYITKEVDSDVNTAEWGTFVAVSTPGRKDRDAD
Experimental: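 A pool of 90-nt single-stranded DNAs with seven random bases just before the constant AC of the nick site (name = the seven bases) was cut by 3 µM recombinant His6-SUMO-tagged Rep nickase domain (300 nM DNA, 50 mM HEPES pH 8.0, 50 mM NaCl, 1 mM MnCl2, 1 h, 37 °C, three replicates). Uncut DNA was amplified and sequenced.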

Sequence | uncleaved DNA left (log2)
AATCTGC | -0.00316
GTACGTT | -0.184
GTCAAAG | 0.107
GAATTGA | -0.0648
AGGTCCT | 0.241
CTGCTAG | -0.0311
GAGAGGA | 0.167
GGTTCTT | 0.13
GCTAGCG | 0.0497
TGACCAA | 0.156
GACAGTA | 0.0786
CTCAGTG | -0.0239
TCGCCCG | -0.188
GTACGCT | -0.0438
TATCCGT | 0.112
CCTCCTA | -0.067
CACCGGC | -0.0392
GAGCCCA | 0.0787
TTTAGCA | 0.0548
CTGAACC | 0.103

Sequence | uncleaved DNA left (log2)
TCTCACC | -0.505
GCACCTT | 0.135
GTCACAC | 0.164
TTCACCA | 0.0443
AGCTCCG | -0.145
AGCGTTC | -0.0299
ACCAGTG | -0.0191
TAAGGTC | -0.0747
TCCACTT | -0.201
ATCTGGT | -0.104
AACGAGA | 0.111
TGTGTGC | -0.0604
CTTATAA | 0.338
GGATGCC | -0.0358
AGGAAGA | 0.155
TGCATAT | -0.191
CGCTTTA | -0.0472
CCTCAGA | 0.0174
CTACTGA | 0.159
CAGGATT | -0.0442
